ChEMBL document CHEMBL4888484, “Replenishing the malaria drug discovery pipeline: Screening and hit evaluation of the MMV Hit Generation Library 1 (HGL1) against asexual blood stage Plasmodium falciparum ,using a nano luciferase reporter read-out” (2022)
In all, about 150,000 compounds went through this assay and about 540 (0.36%) showed an effect of 50% or more. Some of the results follow.

Test system: Plasmodium falciparum
Test: Primary screen in NF54 nanoGlo assay, in single point, at 2uM, 72h; a lower Z score goes with more inhibition
Assay type: functional, Erythrocyte
Conditions: timepoint 72 hour

Structure (SMILES) | % Inhibition | Z score
c1nc(N2CCC[C@@H]2Cn2cncn2)c2cc[nH]c2n1 | -1% | 0.11
O=C(C(Cc1c[nH]c2ccccc12)n1c(O)nc2ccccc2c1=O)N1CCCC1CO (stereo not drawn) | -9% | 1.62
Cc1ccc(C2CC(C)CCN2S(=O)(=O)CCS(C)(=O)=O)o1 (stereo not drawn) | 3% | -0.34
CN1C(=O)C[C@H](Nc2ccc(C(F)(F)F)cn2)C1=O | 6% | -0.65
Cc1ccc(CNC(=O)c2nnc(-c3cccnc3)o2)cc1 | -1% | 0.12
O=C1COCC2(CCC2)N1Cc1ccccc1 | -15% | 1.91
CCOc1cccc2c1OC1(C)C(C(=O)Nc3ccc(C)cc3C)C2NC(=O)N1Cc1ccccc1 (stereo not drawn) | -3% | 0.31
C[C@]1(O)CCN(C(=O)Cc2ccc3c(c2)OCO3)C[C@@H]1O | -1% | 0.18
CN(C)c1ncc(CN2CCC(C)(C)S(=O)(=O)CC2)n1C | -20% | 1.65
COCc1nc(C)c(CNC(=O)c2ncoc2C(C)C)s1 | -5% | 0.48
CN(C)C(=NC[C@@H]1CC=CCC1)N(C)C | -7% | 0.75
O=C(c1cccc2ccccc12)N1CC(n2nccn2)C1 | -6% | 0.71
O=C(Nc1cccc(F)c1)N[C@@H](C1CCCC1)C(F)(F)F | -7% | 1.06
CCOCC(=O)N[C@@H](C)c1nnc(N)s1 | -10% | 1.45
Cc1ccnc(CNC(=O)N2CCC[C@H](OCC3CC3)C2)c1 | -5% | 0.66
CCN1CCN(S(=O)(=O)c2c(C)sc(C)c2-c2cc(C)no2)CC1 | -11% | 1.85
CN(C)C(=NCC(=O)Nc1ccccc1)N(C)C | -1% | 0.2
Cc1nc(C2CC2)ncc1C(=O)N(CCc1ccccc1)C[C@H]1CCCN(C)C1 | 6% | -0.8
COc1ccc(NC(=O)CCC(=O)OC2CCC(C)C(C)C2)cc1 (stereo not drawn) | -12% | 1.38
CCn1nc(C)c(CN(CCc2ccccc2)C[C@H]2CCCN(C)C2)c1C | 2% | -0.4
CCC(=O)Nc1ccc2c(c1)cc(C(=O)NCc1ccccc1)n2Cc1cccc(F)c1 | 1% | -0.1
O=C1c2ccccc2C(=O)N1c1nonc1N1C(=O)C2CCCCC2C1=O (stereo not drawn) | 1% | -0.11
CC(C)(C)OC(=O)N/N=C(/COc1ccccc1)NC1CC1 | -15% | 1.69
CCCCn1c2ccccc2n2cc(-c3ccc4c(c3)OCO4)nc12 | -9% | 0.78
